Measurements: the antibiotic and cytotoxicity screens of Wong et al. (2023)
The other results are listed elsewhere or left out.

What was measured:
[1] = test system: HSkMC (human skeletal muscle cells); test: cytotoxicity call (relative viability < 0.9); settings: 10 µM
[2] = test system: HepG2; test: cytotoxicity call (relative viability < 0.9); settings: 10 µM
[3] = test system: S. aureus RN4220; test: growth inhibition call (relative growth <= 0.2); settings: 50 µM

Row | Compound | cytotoxicity call [1] | cytotoxicity call [2] | growth inhibition call [3]
1 | COC(=O)CCCCCCC(=O)N/N=C/[C@@H](O)[C@H](O)[C@H](O)CO | inactive | inactive | inactive
2 | C[C@@H]1CN([C@H](C)CO)S(=O)(=O)c2ccc(C#Cc3ccccc3)cc2O[C@@H]1CN(C)C(=O)CN(C)C | inactive | active | active
3 | CC(C)CN(C[C@@H](O)[C@H](Cc1ccccc1)NC(=O)O[C@H]1CO[C@H]2OCC[C@H]21)S(=O)(=O)c1ccc(N)cc1 | – | – | inactive
4 | CC(=O)N[C@H](CCCNC(=N)N)C(=O)N[C@H](CCCNC(=N)N)C(=O)N[C@H](CCCNC(=N)N)C(=O)N[C@H](CCCNC(=N)N)C(=O)N[C@H](CCCNC(=N)N)C(=O)N[C@H](CCCNC(=N)N)C(=O)N[C@H](CCCNC(=N)N)C(=O)N[C@H](CCCNC(=N)N)C(=O)N[C@H](CCCNC(=N)N)C(N)=O | – | inactive | inactive
5 | Br.NC(=O)C(c1ccccc1)(c1ccccc1)C1CCN(CCc2ccc3c(c2)CCO3)C1 (stereo unspecified) | – | – | inactive
6 | O=C(O)C1=CC(O)C(O)C(O)C1 (stereo unspecified) | – | – | inactive
7 | COc1cccc(S(=O)(=O)N(C)C[C@@H]2Oc3ncc(C#Cc4ccc(OC)c(OC)c4)cc3C(=O)N([C@H](C)CO)C[C@@H]2C)c1 | inactive | inactive | inactive
8 | CC1(C)C(C(=O)O)N2C(=O)CC2S1(=O)=O (stereo unspecified) | – | – | inactive
9 | Cc1noc(C)c1S(=O)(=O)N(C)C[C@H]1Oc2ccc(NC(=O)CCN3CCOCC3)cc2C(=O)N([C@H](C)CO)C[C@H]1C | inactive | inactive | inactive
10 | C[C@H](CO)N1C[C@H](C)[C@H](CN(C)Cc2ccc(C(=O)O)cc2)Oc2c(NS(=O)(=O)c3cn(C)cn3)cccc2C1=O | inactive | inactive | inactive
